{"source": "PubChem BioAssay AID686970", "about": "(National Center for Advancing Translational Sciences (NCATS), 2013)", "note": "Hit rate of the full screen: of about 360,000 compounds, about 6,000 (1.7%) were called active. Inconclusive results, whose numbers are uncertain, are shown with a selection of clear calls. Calls follow the shape of the dose curve; as a rule, active = well fitted cell-killing curve with a large enough effect; inconclusive = small, poorly fitted or top-dose-only effect, or effect the other way; inactive = flat fitted curve, though single readings scatter. Potencies of inconclusive entries are left out as doubtful fits. Potency is read from the fitted curve at half-maximal effect; tags tell the direction and shape of the fitted curve.", "data": [{"test": "qHTS for induction of synthetic lethality in tumor cells producing 2HG: qHTS for the HT-1080-NT fibrosarcoma cell line;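 also: NT is the 2HG producing partner of a matched IDH1 knockdown line; nearly all actives have a fitted effect of over 55% in size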;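 as to activity, negative = less viability: 0% = DMSO-treated cells and -100% = media-only wells without cells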", "details": "HT-1080-NT fibrosarcoma viability, CellTiter-Glo ATP luminescence, 48 h; activity, negative = less viability: at 46.1 µM (top of the series) unless noted", "outline": "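Fibrosarcoma NT cells, 750 per well in 5% FBS RPMI, were exposed to compound for 48 hours. Viability: CellTiter-Glo luminescence.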", "values": [{"smiles": "Cn1c(SCC(=O)N2CCCC2=O)nc2ccccc2c1=O", "activity, negative = less viability": "inactive: -1.89%"}, {"smiles": "O=C(OCc1cc2ccccc2[nH]c1=O)C1CCCO1", "note": "(stereo unspecified)", "activity, negative = less viability": "inactive: 2.12%"}, {"smiles": "c1ccc(C2=NN(c3ccccc3)CC2)cc1", "activity, negative = less viability": "inactive: 0%"}, {"smiles": "N#C/C(=C\\c1ccccc1)C(=O)NCc1ccc(F)cc1", "Potency": "inconclusive [cytotoxic, single point]"}, {"smiles": "COc1ccc(-c2[nH]c(-c3ccc4c(c3)OCO4)nc2-c2ccccc2)cc1", "Potency": "inconclusive [cytotoxic, single point]"}, {"smiles": "CCOC(=O)Cc1ccc(Nc2nc3cc(-c4ccccc4C)sc3c(=O)n2C)cc1", "Potency": "inconclusive [cytotoxic, single point]"}, {"smiles": "Oc1cccc2ccc[n+](CC(O)Cn3c4ccccc4c4ccccc43)c12", "note": "(stereo unspecified)", "Potency": "inconclusive [cytotoxic, single point]"}, {"smiles": "NC(=O)c1cc(Br)cc2c3c([nH]c12)CCCC3", "Potency": "inconclusive [cytotoxic, single point]"}, {"smiles": "O=c1[nH]cnc(CN2CCCCC2)c1O", "Potency": "inconclusive [rising, partial curve]"}, {"smiles": "FC(F)(F)c1nnc2c(Sc3ccccc3)nc3ccc(Cl)cc3n12", "Potency": "active: 9.2 µM"}, {"smiles": "Oc1ccc(N=Nc2ccc3c(c2)OCCO3)c2ncccc12", "Potency": "inconclusive [cytotoxic, full curve]"}, {"smiles": "COc1ccc(OC)c(Nc2c3c(nc4ccccc24)CCC3)c1", "Potency": "active: 0.651 µM"}, {"smiles": "CC(/C=C/c1ccccc1)=N\\NC(=O)CCc1ccccc1", "activity, negative = less viability": "inactive: 12.1%"}, {"smiles": "CCCCc1ccc(NC(=O)Nc2cnccn2)cc1", "Potency": "inconclusive [cytotoxic, single point]"}, {"smiles": "CC(=O)C1=CCC(c2ccc(C(C)C)cc2)N(S(=O)(=O)c2ccc(C)cc2)C1", "note": "(stereo unspecified)", "Potency": "inconclusive [cytotoxic, single point]"}, {"smiles": "COc1cc(OC)c(CN2CCN(c3ccc(F)cc3)CC2)cc1Br", "Potency": "inconclusive [cytotoxic, single point]"}, {"smiles": "C[C@H]1CN=C(N(C)C)N1CCc1ccc(F)cc1", "Potency": "inconclusive [rising, partial curve]"}, {"smiles": "Cc1ccc(-c2csc3ncn(CC(=O)NCC(c4ccco4)N4CCCC4)c(=O)c23)cc1", "note": "(stereo unspecified)", "Potency": "inconclusive [cytotoxic, partial curve]"}, {"smiles": "FC(F)C(F)(F)c1cc(-c2ccc(Cl)cc2)n[nH]1", "Potency": "inconclusive [cytotoxic, single point]"}, {"smiles": "CC(C)N(C(=O)CSc1nc(COc2ccccc2)nc2ccccc12)C(C)C", "Potency": "inconclusive [cytotoxic, single point]"}, {"smiles": "CN1CC=C2C(C#N)=C(N)C(C#N)(C#N)[C@H](c3cccc(Cl)c3)C2C1", "note": "(stereo partly specified)", "activity, negative = less viability": "inactive: -7.02%"}, {"smiles": "COC(=O)c1cn(C(=O)c2ccc(OC)cc2)c2ccccc12", "Potency": "inconclusive [cytotoxic, full curve]"}, {"smiles": "Cc1cc(Br)c(NC(=O)CN2C(=O)NC3(CCOc4ccccc43)C2=O)c(Br)c1", "note": "(stereo unspecified)", "activity, negative = less viability": "inactive: -4.3%"}, {"smiles": "CCCCCCCCN1C(=O)[C@H](CC(=O)NCc2ccc(OC)c(OC)c2)C[C@@]2(C(=O)OCC)CCC=C12", "Potency": "inconclusive [cytotoxic, single point]"}, {"smiles": "O=C(CN1CCN(S(=O)(=O)c2ccc(F)cc2)CC1)Nc1ccc(Cl)c(C(F)(F)F)c1", "Potency": "inconclusive [cytotoxic, partial curve]"}, {"smiles": "C[C@@H](c1ccccc1)N1C[C@H](COCc2ccccc2)Oc2cc(N3CCC[C@@H]3CO)ccc2S1(=O)=O", "Potency": "inconclusive [cytotoxic, single point]"}, {"smiles": "CN(CC(=O)Nc1ccc(Cl)c(C(F)(F)F)c1)CC(=O)NC1CCCCC1", "activity, negative = less viability": "inactive: -14.3%"}, {"smiles": "CC(=O)Nc1ccc(C(=O)N2CCCCC2c2cc(C(=O)Nc3cccc4c3CCCC4)no2)cc1", "note": "(stereo unspecified)", "Potency": "active: 16.4 µM"}, {"smiles": "CNc1nc(-c2c[nH]c3ccccc23)cs1", "Potency": "inconclusive [cytotoxic, single point]"}, {"smiles": "Cc1c(CCC(=O)O)c(=O)oc2c(C)c(OCc3cc4c(cc3Cl)OCO4)ccc12", "activity, negative = less viability": "inactive: -1.36%"}, {"smiles": "CCc1nnc(NC(=O)CCC(=O)N2CCN(CCc3ccccc3)CC2)s1", "activity, negative = less viability": "inactive: 14.9%"}, {"smiles": "Cc1ccc(Nc2nc(CSc3nnnn3-c3ccccc3)cc(=O)[nH]2)cc1", "Potency": "inconclusive [cytotoxic, single point]"}, {"smiles": "COC1=C(C)C(=O)C2=C(C1=O)C1C3CC4=C(C(=O)C(OC)=C(C)C4=O)C(CNC(=O)C(C)=O)N3C(C#N)C(C2)N1C", "note": "(stereo unspecified)", "Potency": "active: 18.4 µM"}, {"smiles": "CCN(CC)c1ccc(/C=C/c2cccc[n+]2C)c(OC)c1", "Potency": "inconclusive [cytotoxic, full curve]"}, {"smiles": "O=C(c1ccccc1)c1ccccc1N1C(=O)C=CC1=O", "Potency": "active: 16.4 µM"}, {"smiles": "Cc1sc2ncnc(N3CCC(C(=O)Nc4cc(C(F)(F)F)ccc4OCC(F)(F)F)CC3)c2c1C", "activity, negative = less viability": "inactive: -9%"}, {"smiles": "Cc1ccccc1Nc1c(-c2ccccn2)nc2ccccn12", "Potency": "inconclusive [cytotoxic, single point]"}, {"smiles": "COc1ccc(S(=O)(=O)N2CCc3ccccc32)cc1C(=O)Nc1ccc(NC(C)=O)cc1", "Potency": "inconclusive [cytotoxic, single point]"}, {"smiles": "C/C(=N\\Nc1nc2c(s1)CCCC2)c1ccc(Cl)cc1", "Potency": "active: 23.1 µM"}, {"smiles": "CCCc1nn(C)c2c1C(c1ccncc1)C(C#N)=C(N)O2", "note": "(stereo unspecified)", "activity, negative = less viability": "inactive: 2.89%"}, {"smiles": "O=C(NCc1ccccc1)C(c1ccc(-c2ccccc2)cc1)n1c(=O)c(-c2ccco2)nc2ccccc21", "note": "(stereo unspecified)", "Potency": "inconclusive [cytotoxic, single point]"}, {"smiles": "COc1ccc(C(=O)OCC(=O)N2CCN(C(=O)c3ccco3)CC2)c(OC)c1OC", "activity, negative = less viability": "inactive: 3.16%"}, {"smiles": "Oc1ccc(Cl)cc1N=Cc1sc2ccccc2c1Cl", "activity, negative = less viability": "inconclusive: -12.3% [cytotoxic]"}, {"smiles": "CCN1CCN(c2ccc(S(=O)(=O)N3CCCCC3)cc2NC(=O)Cc2ccc(OC)cc2)CC1", "Potency": "inconclusive [cytotoxic, single point]"}, {"smiles": "O=C1CC(N(CCc2ccccc2)C(=S)Nc2ccccc2)C(=O)N1c1ccc(F)cc1", "note": "(stereo unspecified)", "Potency": "inconclusive [cytotoxic, single point]"}, {"smiles": "C(=C\\c1ccccc1)/C=N/Nc1nc(N2CCOCC2)nc(N2CCOCC2)n1", "activity, negative = less viability": "inactive: -0.371%"}, {"smiles": "Cc1ccc(OCC(=O)Nc2ccc3c(c2)nc(CCN2CCN(c4ccccn4)CC2)n3C)cc1", "Potency": "active: 20.6 µM"}, {"smiles": "CCOC(=O)N1CCC(NC(=O)CS(=O)Cc2nc(-c3ccccc3C)oc2C)CC1", "note": "(stereo unspecified)", "activity, negative = less viability": "inactive: 25.3%"}, {"smiles": "COc1cccc(/C=N/NC(=O)c2ccc(COc3ccc(Cl)cc3Cl)o2)c1", "Potency": "inconclusive [cytotoxic, single point]"}, {"smiles": "Fc1ccc(CNc2ncnc3c2cnn3-c2ccccc2)cc1", "activity, negative = less viability": "inconclusive: -31.3% [cytotoxic]"}, {"smiles": "Cc1ccc(NS(=O)(=O)c2cc([N+](=O)[O-])ccc2NNC(=S)Nc2cccc(Cl)c2)c(C)c1", "Potency": "inconclusive [cytotoxic, single point]"}, {"smiles": "COc1ccc(C(=O)Nc2nc3ccccc3[nH]2)cc1", "activity, negative = less viability": "inconclusive: -40.9%"}, {"smiles": "O=C1NC(c2ccc3ccccc3c2)Nc2ccccc21", "note": "(stereo unspecified)", "Potency": "inconclusive [cytotoxic, single point]"}, {"smiles": "Cc1n[nH]c(C)c1N1C(=O)c2cccc3c(Br)ccc(c23)C1=O", "Potency": "inconclusive [cytotoxic, single point]"}, {"smiles": "O=C1NC[C@@H](CCCCN2C[C@H](Cc3ccccc3)N(CC3CCCCC3)C(=O)C2=O)N(CC2CCCCC2)C1=O", "Potency": "inconclusive [cytotoxic, single point]"}, {"smiles": "CCCCC(=NCCc1c(C)[nH]c2ccc(OC)cc12)C1=C(O)CC(c2ccccc2)CC1=O", "note": "(stereo unspecified)", "Potency": "inconclusive [cytotoxic, full curve]"}, {"smiles": "CN(C)CCCn1c(=O)n(Cc2ccco2)c(=O)c2c3c(sc21)CCCCC3", "Potency": "inconclusive [cytotoxic, single point]"}, {"smiles": "COc1ccc(-c2cn(-c3ccc(OC)cc3)c3[n+]2-c2ccccc2CC3)cc1", "Potency": "active: 25.9 µM"}, {"smiles": "CC(=O)c1sc(NC(=O)c2ccc3c(c2)OCO3)nc1C", "Potency": "inconclusive [cytotoxic, single point]"}, {"smiles": "COc1ccc(CCNc2c(C)c(C)nc3ncnn23)cc1", "Potency": "active: 10 µM"}, {"smiles": "Cc1ccc2nc3c(c(Nc4ccc5c(c4)OCCO5)c2c1)CCC3", "Potency": "inconclusive [cytotoxic, single point]"}, {"smiles": "CC(C)(C)C1N=C(c2ccc3ccccc3c2)OC1=O", "note": "(stereo unspecified)", "Potency": "inconclusive [rising, single point]"}, {"smiles": "O=C1C=C(Nc2cccnc2)c2ccccc2C1=O", "Potency": "active: 23.1 µM"}, {"smiles": "COc1cc2c(cc1OC)CN(C(=O)CCC(=O)c1ccc(F)cc1)CC2", "Potency": "inconclusive [cytotoxic, single point]"}, {"smiles": "Cc1nc(C(=O)Nc2ccc(F)cc2)nn1-c1ccc([N+](=O)[O-])cc1", "activity, negative = less viability": "inactive: 16.8%"}, {"smiles": "Cn1ncc2cc3c(Nc4ccc(Cl)cc4)cccc3nc21", "Potency": "inconclusive [cytotoxic, single point]"}, {"smiles": "O=C(CN1C(=O)C2CCCCC2C1=O)Nc1nc(-c2ccccn2)cs1", "note": "(stereo unspecified)", "Potency": "inconclusive [cytotoxic, partial curve]"}, {"smiles": "O=C(CCCCCCCC(=O)NNC(=O)Nc1ccccc1)NNC(=O)Nc1ccccc1", "Potency": "inconclusive [cytotoxic, single point]"}, {"smiles": "CN1CCc2c(sc(NC(=O)c3cc(Cl)sc3Cl)c2C(N)=O)C1", "Potency": "inconclusive [cytotoxic, single point]"}, {"smiles": "CCOC(=O)NNc1ccccc1", "Potency": "active: 4.11 µM"}, {"smiles": "CC1(Cc2ccccc2OC(F)(F)F)C(=O)Nc2ccc(-c3ccsc3)cc21", "note": "(stereo unspecified)", "Potency": "inconclusive [cytotoxic, single point]"}]}]}
